# Reference: PubChem BioAssay AID624171 (National Center for Advancing Translational Sciences (NCATS), 2012)
# The campaign covered roughly 410,000 compounds. About 1,200 (0.29%) were called active. This list was built around the results that the source calls inconclusive (neither active nor inactive); the mix of calls is not that of the screen. Calls come from the whole dose curve; as a rule, active = well fitted activation curve with a large enough effect; inconclusive = small, poorly fitted or top-dose-only effect; inactive = flat fitted curve, though single readings scatter. A potency beside an inconclusive call is a rough fit, not a confirmed value.
# Experiment: qHTS of Nrf2 Activators; note: nearly all actives have a fitted effect of over 65% in size; for activation: % of control where 0% means no effect
# Settings: AREc32 ARE-luciferase reporter (MCF7-derived line), luminescence, 24 h; activation: at 46.1 µM (top of the series)
# Outline: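 Cells of the AREc32 ARE-luciferase line are plated in OPTI-MEM containing 5% FBS and left overnight at 37 deg C. Compounds are pinned in, incubation continues 24 hr, and firefly luciferase signal is then measured.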
# Potency is the fitted concentration of half-maximal effect; tags give direction and shape of the fitted curve.
SMILES,Potency,activation
O=C(/C=C/c1ccccc1O)c1ccc(Cl)cc1,"inconclusive: 3.16 µM [activator, single point]",–
O=C(NC(=S)Nc1ccc(S(=O)(=O)Nc2ncccn2)cc1)c1cccc(Br)c1,"inconclusive: 11.2 µM [activator, partial curve]",–
Cc1ccc(O)c(NC(=O)c2cc([N+](=O)[O-])ccc2Cl)c1,"inconclusive: 2.82 µM [activator, full curve, poor fit]",–
C=CCC(Nc1ccccc1)C12C=CC(O1)C(C(=O)OC)=C2C(=O)OC (stereo unspecified),active: 11.2 µM,–
CCOC(=O)/C=C(\C)N1N=C(c2ccccc2)CC1c1ccccc1 (stereo unspecified),active: 12.6 µM,–
O=C(Nc1c(C(=O)O)[nH]c2ccccc12)c1cccc(C(F)(F)F)c1,"inconclusive: 17.8 µM [activator, single point]",–
O=C1Nc2ccc(Br)cc2/C1=C/C(=O)c1ccc2c(c1)OCO2,"inconclusive: 22.4 µM [activator, single point]",–
CC(C)CN1C(=O)/C(=C/c2ccco2)NC1=S,"inconclusive: 12.6 µM [activator, partial curve, poor fit]",–
N/C(=N\OC(=O)c1cc(Cl)ccc1Cl)c1ccccn1,"inconclusive: 3.55 µM [activator, partial curve, poor fit]",–
COc1ccc(C(=O)NNC(=O)Cc2coc3cc(OC)ccc23)cc1,–,inactive: -0.474%
CC1=NN(c2cccc(C(=O)O)c2)C(=O)/C1=C\C=C/c1ccccc1,"inconclusive: 7.94 µM [activator, partial curve, poor fit]",–
CC(=O)c1cc2c(cc1NC(=O)c1ccco1)OCCO2,"inconclusive: 2.82 µM [activator, full curve, poor fit]",–
COc1cccc(Nc2nc(-c3ccc(O)cc3)cs2)c1,"inconclusive: 20 µM [activator, single point]",–
Cc1cc(=O)oc2cc(OCC(=O)OCC(=O)N3CCC(C)CC3)ccc12,–,inactive: -0.476%
BrC(=C\c1ccccc1)/C=N/Nc1nc(N2CCOCC2)nc(N2CCOCC2)n1,"inconclusive: 20 µM [activator, single point]",–
Cc1cccc(CSc2nc3c(c(=O)n2C)SCC3)c1,"inconclusive: 17.8 µM [activator, partial curve, poor fit]",–
COc1cccc(NC(=O)Cn2c(=O)c3cccn3c3ccc(F)cc32)c1,–,inactive: 7.71%
COC(=O)c1sc2cccc(F)c2c1S(=O)(=O)NCc1ccc(F)cc1,"inconclusive: 10 µM [activator, partial curve, poor fit]",–
Nc1nonc1C(=O)N/N=C/c1cccc([N+](=O)[O-])c1,"inconclusive: 22.4 µM [activator, single point]",–
CSc1nnc2sc3cc(C)ccc3n12,"inconclusive: 15.8 µM [activator, single point]",–
Cc1ccc(-n2c(C)nc3ccsc3c2=O)cc1,–,inactive: -0.111%
O=C(NCCC1=CCCCC1)c1coc(=O)c(Br)c1,active: 12.6 µM,–
O=C(Nc1ccc2oc(-c3ccc4ccccc4c3)nc2c1)c1cccc(Cl)c1Cl,–,inactive: -0.109%
Cc1ccccc1NC(=O)c1cc2ccccc2o1,"inconclusive: 7.08 µM [activator, partial curve]",–

SMILES,Potency,activation
CC1=C(C(N)=O)C(c2cccc(OCc3ccccc3)c2)n2nnnc2N1 (stereo unspecified),"inconclusive: 22.4 µM [activator, single point]",–
Cc1c([N+](=O)[O-])c([N+](=O)[O-])nn1CC(=O)NCc1cccnc1,"inconclusive: 22.4 µM [activator, single point]",–
O=C(CSc1c2c(nc3ccc(Cl)cc13)CCCC2)N1CCN(C(=O)c2ccco2)CC1,"inconclusive: 5.62 µM [activator, single point]",–
O=C(Nc1nc2ccccc2[nH]1)c1ccc(Br)o1,"inconclusive: 1.26 µM [activator, partial curve, poor fit]",–
O=C(c1ccco1)N1CCN(c2nc(C3CC3)nc3c2nnn3Cc2ccccc2Cl)CC1,–,inactive: 2.26%
CCOC(=O)c1sc(=NC(=O)c2ccco2)n(C)c1C,"inconclusive: 1.78 µM [activator, partial curve, poor fit]",–
O=C1CS/C(=N\N=C\c2ccco2)N1c1ccccc1,"inconclusive: 11.2 µM [activator, partial curve, poor fit]",–
COc1cccc(-c2noc(-c3ccc(Cl)nc3)n2)c1,"inconclusive: 12.6 µM [activator, partial curve, poor fit]",–
CC1Cc2ccccc2N1C(=O)COC(=O)c1ccc([N+](=O)[O-])o1 (stereo unspecified),"inconclusive: 22.4 µM [activator, single point]",–
CCOC(=O)c1ccc(N2C(=O)c3n[nH]c(C)c3C2c2ccc(O)c(OC)c2)cc1 (stereo unspecified),"inconclusive: 35.5 µM [activator, single point]",–
COc1ccc(-c2cc(=O)c3ccccc3o2)cc1,"inconclusive: 8.91 µM [activator, partial curve]",–
COc1ccccc1/C=C/C(=O)NC(=S)Nc1ccccn1,"inconclusive: 20 µM [activator, single point]",–
NC(=O)NC(=O)CC1S/C(=N/N=C/c2ccccc2)NC1=O (stereo unspecified),–,inactive: 0.126%
Cc1occc1C(=O)N/N=C/c1ccc(Cl)c([N+](=O)[O-])c1,"inconclusive: 22.4 µM [activator, single point]",–
COc1cccc(NC(=O)COC(=O)c2c(F)cccc2Cl)c1,–,inactive: -0.242%
CCCC(NC(=O)CCl)c1ccccc1 (stereo unspecified),"inconclusive: 22.4 µM [activator, single point]",–
CCOC(=O)C1=C(c2ccccc2)OC(N)=C(C#N)C1c1ccc(Cl)s1 (stereo unspecified),"inconclusive: 31.6 µM [activator, single point]",–
c1csc(-c2nc3ccccc3s2)c1,"inconclusive: 12.6 µM [activator, partial curve, poor fit]",–
COc1ccc(/C=C/C(=O)c2cc(Cl)ccc2O)c(OC)c1,"inconclusive: 10 µM [activator, partial curve]",–
COc1cc(NC(=O)CCc2c(C)nc3c(c(C)nn3-c3ccccc3)c2C)cc(OC)c1OC,–,inactive: -1.01%
COc1ccc2ccccc2c1C(=O)/C=C\c1ccoc1,active: 12.6 µM,–
CC(=O)c1sc(-c2ccccc2)nc1C,"inconclusive: 22.4 µM [activator, single point]",–
Cn1c(NC(=O)c2ccc(Br)o2)cc(=O)n(C)c1=O,active: 11.2 µM,–
O=C1c2ccccc2C(=O)c2cc(N3CCCCC3)ccc21,–,inactive: 6.23%

SMILES,Potency,activation
CS(=O)(=O)c1nc(S(=O)(=O)c2ccc(Cl)cc2)c(N2CCC3(CC2)OCCO3)s1,active: 10 µM,–
C(=N\Nc1ncnc2nc[nH]c12)/c1cccs1,"inconclusive: 11.2 µM [activator, single point]",–
O=[N+]([O-])c1ccccc1/C=N\Nc1nccs1,"inconclusive: 7.08 µM [activator, partial curve, poor fit]",–
O=C(O)/C=C\C(=O)Nc1ccccc1C#Cc1ccccc1,"inconclusive: 25.1 µM [activator, single point]",–
Cc1cc(C)nc(-n2nc(C)cc2NC(=O)CN2CCC(C)CC2)n1,"inconclusive: 28.2 µM [activator, single point]",–
O=C(c1ccc([N+](=O)[O-])o1)N(Cc1nnc(-c2ccccc2Cl)o1)C1CC1,"inconclusive: 17.8 µM [activator, single point]",–
CCc1cccc(CC)c1NC(=O)CCS(=O)(=O)c1ccc(Br)cc1,–,inactive: -0.425%
COC(=O)c1cc(NC(=O)c2ccccc2)c(=O)oc1C,"inconclusive: 15.8 µM [activator, single point]",–
Cc1nc(Nc2cccc(Cl)c2)c2oc3ccccc3c2n1,"inconclusive: 1.78 µM [activator, partial curve, poor fit]",–
COc1ccc(C)cc1NC(=O)c1ccc2c(c1)N(Cc1cccc(Cl)c1)C(=O)c1ccccc1S2=O (stereo unspecified),–,inactive: -0.0334%
CN(c1ccccc1)S(=O)(=O)c1cccc(C(=O)NCC(=O)Nc2ccc(F)c(F)c2F)c1,–,inactive: -0.115%
Cc1sc(N/N=C/c2ccco2)nc1-c1ccccc1,"inconclusive: 6.31 µM [activator, partial curve, poor fit]",–
N#Cc1ccccc1COC(=O)c1cc(=O)c2ccccc2o1,"inconclusive: 15.8 µM [activator, single point]",–
Cc1nc(C)n(C(Oc2ccc(Cl)cc2Cl)C(=O)C(C)(C)C)n1 (stereo unspecified),–,inactive: 2.87%
CCOC(=O)c1c(NC(=O)CCl)sc(C(=O)N(CC)CC)c1C,"inconclusive: 31.6 µM [activator, single point]",–
C[C@@]12C(=O)Nc3cc(F)ccc3C(=O)N1[C@H]1c3cc(Br)ccc3OC[C@@H]1[C@@H]2c1ccccc1,–,inactive: 3.86%
Cc1nc(-c2ccccc2)c(-c2ccccc2)[nH]1,–,inactive: 2.73%
CCOc1ccccc1NC(=O)c1c(NCc2ccc(C)o2)sc2c1CCCCC2,"inconclusive: 12.6 µM [activator, single point]",–
Cc1cc(O)ccc1Nc1nc2ccccc2nc1Nc1ccc(O)cc1C,"inconclusive: 15.8 µM [activator, partial curve, poor fit]",–
O=c1oc2c(F)cc(F)cc2cc1S(=O)(=O)c1ccc(F)cc1,active: 10 µM,–
Cc1ccc([N+](=O)[O-])cc1-c1ccc(/C=N/NC(=O)CN2CCOCC2)o1,active: 12.6 µM,–
CN(C)/N=C/C=C1\CCC/C(=C/c2cccs2)C1=O,active: 10 µM,–
O=[N+]([O-])c1ccc2oc(-c3cccc(O)c3)nc2c1,active: 6.31 µM,–
